115 molecules from PubChem BioAssay AID488969 (Vanderbilt High Throughput Screening Facility, 2010) can be followed below.

Each structure is given as a SMILES string. Over roughly 110,000 compounds, “z-score” has its median near -0.1; the highest 2% begin near 2. This is one part of the list. Activity calls are given as the source filed them.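 Rule for the calls: active = z-score in the third read window above 3 or below -3; inactive = the rest.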

The assay concerns the target Metabotropic glutamate receptor 8 (Rattus norvegicus) (UniProt P70579). Nature of the assay: rat mGluR8 modulators via GIRK flux, primary screen, cell-based, thallium flux, HTS (AID 488969). Conditions: HEK293 rat mGluR8, GIRK (G protein-gated inwardly rectifying potassium channel) thallium flux, FluoZin2; at 10 µM; stronger effect = higher value.
UniProt P70579, sequence (P70579 whole entry, looked up): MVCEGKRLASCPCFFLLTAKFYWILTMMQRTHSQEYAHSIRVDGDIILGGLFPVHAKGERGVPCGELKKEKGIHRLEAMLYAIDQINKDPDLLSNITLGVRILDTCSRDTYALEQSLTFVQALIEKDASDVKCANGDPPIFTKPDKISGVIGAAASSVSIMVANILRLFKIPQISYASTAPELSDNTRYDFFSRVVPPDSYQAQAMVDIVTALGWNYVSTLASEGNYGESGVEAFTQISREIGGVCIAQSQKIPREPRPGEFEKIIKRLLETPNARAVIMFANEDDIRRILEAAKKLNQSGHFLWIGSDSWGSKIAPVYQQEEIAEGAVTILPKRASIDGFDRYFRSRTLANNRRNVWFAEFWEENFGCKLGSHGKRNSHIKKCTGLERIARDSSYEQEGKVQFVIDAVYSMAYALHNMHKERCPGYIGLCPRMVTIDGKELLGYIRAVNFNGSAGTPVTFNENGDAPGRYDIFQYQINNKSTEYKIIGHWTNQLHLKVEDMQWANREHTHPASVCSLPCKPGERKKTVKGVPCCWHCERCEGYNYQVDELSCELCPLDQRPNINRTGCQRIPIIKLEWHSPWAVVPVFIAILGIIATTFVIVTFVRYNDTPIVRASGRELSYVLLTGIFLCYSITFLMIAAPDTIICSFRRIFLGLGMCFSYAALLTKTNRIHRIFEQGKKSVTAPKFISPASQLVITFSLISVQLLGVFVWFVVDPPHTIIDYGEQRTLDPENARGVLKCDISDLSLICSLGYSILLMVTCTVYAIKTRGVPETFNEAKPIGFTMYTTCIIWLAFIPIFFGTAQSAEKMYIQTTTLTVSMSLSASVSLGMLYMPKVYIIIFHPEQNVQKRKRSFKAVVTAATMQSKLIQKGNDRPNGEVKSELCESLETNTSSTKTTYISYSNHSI
For the molecule `CCOc1cc(C2C(C#N)=C(N)Oc3c2c(=O)oc2ccccc32)ccc1OC(=O)c1cccs1` (stereo not given), the z-score is -0.147.
The figure for `COc1cccc(CNC2CN3CCC2CC3)c1OC` (stereo not given) is -0.0115.
On to `CCCC(=O)Nc1cc(C(=O)N2CCC3(CC2)OCCO3)ccc1S(=O)(=O)c1ccc(C)cc1`, for which the z-score was -0.0584.
The result for `Cn1c(O)c(C(=O)c2ccccc2F)c(=O)n(C)c1=O` reads -0.155; that for `CCOP(=S)(OCC)SCC(=O)NC(C)(CC)C(=O)O` (stereo not given), -1.5; that for `CCN(CC)CCCOC(=O)C(OC)(c1ccccc1)c1ccccc1`, 1.41.
The result for `COc1ccc(OC)c(NP(=O)(Oc2ccc(Cl)cc2)Oc2ccc(Cl)cc2)c1` reads -0.219; that for `CCOCC(=O)NC1CCSC1=O` (stereo not given), 0.651; that for `Cc1ccc(NC2=NCCCS2)c(C)c1C`, -0.092.
The figure for `Cc1n[nH]c(C)c1CCN` is -0.945; for `C=CCN1C(=O)/C(=C/c2cc(C)n(-c3cccnc3)c2C)C(=O)NC1=S` it is -0.585; for `CC(C)CCn1c(N)c(C(=O)NCc2cccs2)c2nc3ccccc3nc21` it is 0.0874.
Turning to `CCOP(=O)(OCC)C(NC(=O)C(C)C)C(Cl)(Cl)Cl` (stereo not given), the z-score was -0.158.
The molecule `O=C(N/N=C/c1c(O)n(Cc2ccccc2)c(=O)[nH]c1=O)c1ccccc1O` had a z-score of 0.0563.
The figure for `CCOC(=O)c1c(C)n(Cc2ccccc2)c2ccc(OCC(O)Cn3nc(C)cc3C)cc12` (stereo not given) is -0.19; for `CC(C)Oc1cc(-n2c(=S)[nH]c3ccccc3c2=O)c(Cl)cc1Cl` it is active: 12.9.
The molecule `O=C(COC(=O)Cc1ccccc1)Nc1ccc(SC(F)F)cc1` displayed a z-score of -0.37.
The figure for `COc1ccc(OCC(=O)N2CCN(Cc3nc4cc([N+](=O)[O-])ccc4n3C)CC2)cc1` is -1.38; for `CC(C)(C)NC(=O)Cn1cc(C(=O)c2ccccc2F)c2ccccc21` it is -0.254; for `CN(C)CP(=O)(Nc1ccccc1)N(C)C` (stereo not given) it is -0.0768.
`CCC(=NCc1ccc(F)cc1)c1c(O)n(C)c(=O)n(C)c1=O`: the z-score is -0.274.
`CP(C)(=O)CCC(=O)O` had a z-score of 0.753.
The result for `Cc1ccc(-c2nc3ccccc3c(=O)n2-c2nccs2)cc1` reads -0.4; that for `O=c1[nH]c(=O)n(C2CCCCCC2)c(O)c1C=NCCCN1CCOCC1`, 0.0456; that for `O=S(=O)(c1ccccc1)N1CN2CCN(C2)C1`, -0.503.
The molecule `COc1ccc(C(C)=O)cc1CC(C(=O)c1ccc(C)c(C)c1)N(C)C` (stereo not given) showed a z-score of -0.208.
Molecule `O=c1[nH]c(=O)n(Cc2ccccc2)c(O)c1C=NCCCO` came in with a z-score of 0.265.
In the case of `C/C(=N\Nc1ccccc1)c1c(O)n(C)c(=O)n(C)c1=O`, the z-score was active: 3.74.
The result for `CNP(=S)(NC)OCCOc1ccc(OC)cc1` reads -0.215; that for `Nc1ccccc1C(=O)c1ccccc1`, -0.501.
The result for `COc1cc(C2NCc3ccccc3-n3cccc32)ccc1O` (stereo not given) reads 1.55; that for `CCOC(=O)C1=C(NC(=S)NC(=O)c2ccccc2)c2ccccc2CC12CCCC2`, 2.46; that for `COCCCN1CCN(c2nnc3n2-c2sc(Br)cc2C(c2ccccc2Cl)=NC3)CC1`, -0.133.
The result for `Cn1cc(CCC(=O)N2CCC3(CC2)OCCO3)c2ccccc21` reads -0.194.
As to `CC1CC2(O)c3no[n+]([O-])c3CCC2N1O` (stereo not given), the z-score is -0.461.
The figure for `CCCC(=O)NC(Oc1ccc(Cl)cc1Cl)C(Cl)(Cl)Cl` (stereo not given) is -0.436.
The result for `CC1CCCC(NC(=O)COC(=O)Cc2ccccc2)C1C` (stereo not given) reads -0.126; that for `Cc1ccc(S(=O)(=O)N(C)CCCC(=O)N2CCN(c3ccccn3)CC2)cc1`, 0.0438.
The figure for `CC(C)c1ccc(O)c(CN2CCN(c3ccccc3)CC2)c1` is -0.892.
Molecule `CC(NCc1ccc(Cl)cc1Cl)C(O)c1ccccc1` (stereo not given) showed a z-score of -0.0262.
The result for `CN1CCN(C(=O)COc2ccc(S(=O)(=O)NCc3ccccc3)cc2Cl)CC1` reads 0.476; that for `CC(=O)Nc1ccccc1C(=O)OCC(=O)c1ccc2c(c1)OCCO2`, -0.204.
The figure for `CCN(CC)Cc1c[nH]c2ccccc12` is -0.122; for `Cc1ccc(C(=O)C2CN3CCC2CC3)cc1` (stereo not given) it is -0.598; for `Cc1cccc(NP(=O)(Oc2ccccc2F)Oc2ccccc2F)c1C` it is -0.437.
The result for `O=C1NC(=O)N(c2ccc(Cl)cc2)C(=O)/C1=C\c1ccc(Sc2nc3ccccc3[nH]2)o1` reads -0.129; that for `CCCSP1(=S)NCCCO1` (stereo not given), -0.333; that for `CCN1CCN(c2cc(N3CCCC3)c(F)cc2[N+](=O)[O-])CC1`, 0.997.
`CCC/C(=N\O)c1c[nH]c2ccccc12` returned a z-score of -0.0278.
The figure for `O=C(N/N=C/c1c(O)n(Cc2ccc(F)cc2)c(=O)[nH]c1=O)c1ccccc1O` is -0.172.
The figure for `CCOC(=O)C(O)(c1ccc(N(CC)C(=O)OC)cc1)C(F)(F)F` (stereo not given) is -0.39.
As to `CCCC(C)C1(CC)C(=O)NC(=O)N=C1N` (stereo not given), the z-score was -0.463.
The figure for `O=C(Nc1cccc(C(F)(F)F)c1)c1cccn(Cc2ccc3c(c2)OC(F)(F)O3)c1=O` is -0.1; for `N[C@@H](Cc1c[nH]c2ccccc12)c1nnc(SCc2ccccc2)o1` it is 0.416; for `Cc1ccc(OCC(=O)Nc2ccc(Cl)cc2C(=O)c2ccccc2)cc1` it is 0.107.
The result for `OCCNc1c2c(nc3ccccc13)CCCC2` reads 0.665.
The result for `COc1ccc(OC)c(C2=NOC(C(=O)N3CCC4(CC3)OCCO4)C2)c1` (stereo not given) reads 0.488; that for `O=c1c2ccccc2ncn1-c1ccc([N+](=O)[O-])c(C(F)(F)F)c1`, -0.126.
Molecule `Cc1ccc2nsnc2c1-n1c(C)nc2ccccc2c1=O` showed a z-score of 0.0517.
The molecule `COc1ccc(C(=O)C(Cc2ccccc2)N(C)C)cc1` (stereo not given) gave a z-score of -0.0336.
Regarding `O=c1c2ccccc2nc(-c2cccs2)n1-c1cnccn1`, the z-score is -0.976.
For `C1=C(c2c[nH]c3ccccc23)CCNC1`, the z-score amounted to 1.29.
Molecule `CCn1cc(C(=O)c2ccccc2)c2ccccc21` gave a z-score of -0.437.
The result for `CC(O)CNc1ccc([N+](=O)[O-])c2cccnc12` (stereo not given) reads -0.0963; that for `Cc1nn(Cc2ccccc2)c(C)c1C=C1C(=O)NC(=S)NC1=O`, -0.287; that for `C=CCN1C(=O)C2(C(C(=O)OCC)=C(N)Oc3ccccc32)C2=C1CCCC2=O` (stereo not given), 0.304.
The figure for `CCOCCN1CCN(c2nnc3n2-c2ccc(Cl)cc2C(c2ccccc2Cl)=NC3)CC1` is -0.334; for `CCC(CO)Nc1ccc([N+](=O)[O-])c2cccnc12` (stereo not given) it is -0.388.
The figure for `Cc1ccc2c(c1)=C/C(=C\c1c(O)[nH]c(=S)[nH]c1=O)C(=O)N=2` is -0.23; for `CC(=O)c1ccc(OC(NC(=O)Cc2ccccc2)C(Cl)(Cl)Cl)cc1` (stereo not given) it is -0.114.
`CN(C)C(=O)Oc1ccc(OC(=O)N(C)C)cc1` yielded a z-score of 0.415.
The figure for `CC(C)C(=O)c1cn(Cc2ccccc2C#N)c2ccccc12` is -0.298; for `CC1(C)CN=C(Nc2nc3ccccc3s2)S1` it is -0.316.
Take `CCN(CC)S(=O)(=O)c1cc(NC(=O)C(C)N2CC=C(c3ccccc3)CC2)ccc1C` (stereo not given): the z-score is -0.702.
`CN1C(=O)C(Cc2cccs2)C(=O)N(C)C1=O` registered a z-score of -0.201.
The result for `O=P(Nc1cccnc1)(Oc1ccccc1)Oc1ccccc1` reads -0.195.
`CC(=O)Nc1cc(C(=O)N2CCC3(CC2)OCCO3)ccc1S(=O)(=O)c1ccc(Cl)cc1`: the z-score was -0.147.
The molecule `O=C(C1CCC(=O)N1Cc1ccc(F)cc1)N1CCC2(CC1)OCCO2` (stereo not given) registered a z-score of 0.159.
For the molecule `CN1C(=O)N(C)C(=O)C2(Sc3ccccc3C2=O)C1=O`, the z-score was -0.108.
On to `O=C(c1cc2c(s1)CCCCCC2)N1CCC2(CC1)OCCO2`, for which the z-score is -0.14.
The figure for `CN(C)c1ccc(/C=C2/C(=O)NC(=O)N(CCc3ccc(F)cc3)C2=O)cc1` is -0.183; for `CCc1cccc(C)c1NC(=S)N1CC2CC(C1)c1cccc(=O)n1C2` (stereo not given) it is -0.12; for `O=C1OCCC1NC1=NCCC1` (stereo not given) it is 0.969.
The result for `COc1ccccc1N1CCN(Cc2cc(C)c(C)cc2O)CC1` reads -0.141; that for `CNCCc1nc(N)n[nH]1`, -0.346.
The figure for `CC(=NCc1ccco1)c1c(O)n(C)c(=O)n(C)c1=O` is 1; for `O=c1[nH]c(=O)n(Cc2ccco2)c(O)c1C=NCCCn1ccnc1` it is 0.07; for `FC(F)(F)/C(=N\P(=S)(N1CCOCC1)N1CCOCC1)N1CCOCC1` it is -0.145.
`CN1CCc2nc3ccc(F)cc3c(C(N)=O)c2C1` displayed a z-score of -0.062.
As for `Cn1cccc1CNCCc1ccc(F)cc1`, the z-score is -0.24.
The result for `FC(F)(F)c1ccccc1CN1CCN(Cc2ccccc2)CC1` reads -0.36; that for `CCOc1ccc(-n2c(O)c(C=NCCCn3ccnc3)c(=O)[nH]c2=O)cc1`, 0.0171; that for `Oc1ccc(/C=N/NP(=S)(c2ccccc2)c2ccccc2)c(O)c1O`, 0.274.
The result for `Cc1c(C(=O)N2CCC3(CC2)OCCO3)oc2ccccc12` reads 0.833.
The figure for `CN1C(=O)NC(=O)C2(Cc3ccccc3N3CCOCC32)C1=O` (stereo not given) is -0.307; for `CCOc1ccc(N=C2SCCCN2C)cc1` it is 0.638; for `Cc1ccccc1-n1c(C)cc(/C=C2/C(=O)NC(=O)N(Cc3ccco3)C2=O)c1C` it is 1.01.
`O=C(c1sc2ccccc2c1Cl)N1CCC2(CC1)OCCO2`: the z-score is -0.308.
The figure for `c1ccc(C(OCCN2CCNCC2)c2ccccc2)cc1` is 0.0452; for `O=c1c2ccccc2nc(-c2ccc([N+](=O)[O-])cc2)n1-c1ccccc1` it is -0.0961.
The result for `Cc1cccc(CN2CCN(Cc3ccc(Cl)cc3)CC2)c1` reads -0.773; that for `CCOc1ccc(C2C(C#N)=C(N)Oc3c2c(=O)oc2ccccc32)cc1` (stereo not given), 0.101.
With `Cc1ccc(-c2nc3ccccc3c(=O)n2-c2cccnc2)cc1`, the z-score was -0.94.
The result for `Cc1c(N=Cc2c(O)n(CCc3ccc(F)cc3)c(=O)[nH]c2=O)c(=O)n(-c2ccccc2)n1C` reads -0.511; that for `Cc1cc(/C=C2\C(=O)NC(=O)N(c3cccc(Br)c3)C2=O)c(C)n1C`, -1.26; that for `CC(C)CC(NC(=O)C1CCCCC1)C(=O)N1CCC2(CC1)OCCO2` (stereo not given), 0.0831.
The figure for `Clc1ccc2c(c1)C(c1ccccc1Cl)=NCc1nncn1-2` is 1.46; for `CCCC(C)n1[nH]c(=O)c2c1NC(=O)CSC2c1ccc(OC)cc1` (stereo not given) it is 0.623.
The result for `Cc1cc2c(s1)NC(=O)CN=C2c1cccs1` reads -0.674; that for `C=CCn1c(O)c(N=Nc2c(C)n(C)n(-c3ccccc3)c2=O)c(=O)[nH]c1=S`, 0.244.
`Cc1ccc(N2C(=O)NC(=O)/C(=C\c3ccsc3)C2=O)cc1C` returned a z-score of -0.165.
The figure for `CC(=NCCCN1CCCCC1)c1c(O)n(Cc2ccccc2)c(=O)[nH]c1=O` is -0.0233.
With `CCN(CC)CCCC(C)N=C(c1ccccc1)c1c(O)n(C)c(=O)n(C)c1=O` (stereo not given), the z-score is -0.293.
The figure for `O=P(O)(O)Cc1ccccc1OP(=O)(c1ccccc1)c1ccccc1` is -0.537; for `O=C(/C=C/c1ccccc1)c1c(O)n(CCc2ccccc2)c(=O)[nH]c1=O` it is -0.203.
